From PubChem BioAssay (NCATS)
Where “and” joins values, the source holds several entries; their conditions need not be identical. Identical values can stand only once. Inconclusive means that the source gave no clear call. For some of these results: Potencies of inconclusive entries are doubtful fits and often do not repeat.

Test: Cell Viability - H-4-II-E (AID 543); further: potency means the concentration at half of the fitted maximal effect
Conditions: H-4-II-E rat hepatoma viability; series mostly up to 92.2 µM
Method in brief: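 CellTiter-Glo luminescence (intracellular ATP) measured after 40 h compound exposure at 37 °C in H-4-II-E rat hepatoma cells seeded at 1500/well. Values are AC50s fitted with the standard Hill equation.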
Tags describe the fitted curve by direction and shape.

Compound | Potency
Clc1ccc(C(c2ccc(Cl)cc2)C(Cl)(Cl)Cl)cc1 | inconclusive: 50.1 µM [falling, single point]
CC[n+]1c(-c2ccccc2)c2cc(N)ccc2c2ccc(N)cc21 | inconclusive: 50.1 µM [falling, partial curve]
O=[N+]([O-])c1cc([N+](=O)[O-])c2ccccc2c1 | inconclusive: 79.4 µM [falling, single point]
COc1ccc(C(c2ccc(OC)cc2)C(Cl)(Cl)Cl)cc1 | inconclusive: 50.1 µM [falling, partial curve]

Test: Cell Viability - Renal Proximal Tubule (AID 545);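 further: 0% = DMSO only and -100% = 100 µM tamoxifen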
Conditions: renal proximal tubule cells viability; activity change, negative = cytotoxicity: at 91.7 µM (top of the series; the call rests on the fitted dose curve and not on this point) unless noted
Method in brief: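 In this qHTS format, normal rat kidney-derived proximal tubule cells in complete culture medium receive compound titrations, then sit 40 hours at 37 °C before luciferase-based ATP quantitation; potency is reported as AC50 from concentration-response curves.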

Compound | activity change, negative = cytotoxicity
CC[n+]1c(-c2ccccc2)c2cc(N)ccc2c2ccc(N)cc21 | inconclusive: -33.9%
CC(C)Nc1ccc(Nc2ccccc2)cc1 | inconclusive: -60.3% [at 91.7 µM, primary cells of rat origin]
COc1ccc(C(c2ccc(OC)cc2)C(Cl)(Cl)Cl)cc1 | inconclusive: -40.6% [at 91.7 µM, primary cells of rat origin] and inconclusive: -39.4% [at 91.7 µM, primary cells of rat origin]
